Results taken from the RNAGym collection of RNA variant scans (doi:10.1073/pnas.2313332121).
Variants at the floor of the assay are shown more often than the library holds them.

B1: TPR 5TU (parent)
chain: GGAUCUUCUCGAUCUAACAAAAAAGACAAAUCUGCCACAAAGCUUGAGAGCAUCUUCGGAUGCAGAGGCGGCAGCCUUCGGUGGCGCGAUAGCGCCAACGUUCUCAACUAUGACACGCAAAACGCGUGCUCCGUUGAAUGGAGUUUAUCAUG

Variants of: B1
Test: polymerase ribozyme fitness, log enrichment relative to wild type (log ratio); higher = more active; in vitro selection for triplet polymerase activity
Method in brief: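 Each subunit of a heterodimeric triplet polymerase ribozyme was mutagenized into a library by PCR, transcribed, and subjected to one round of in vitro selection, run in triplicate. Libraries were annealed with a biotinylated primer, the partner subunit and triplets, incubated frozen at −7 °C, and extended constructs were gel-excised, captured on streptavidin beads and recovered by RT-PCR. Input and output libraries were sequenced on Illumina, keeping genotypes with ≥10 input reads and ≥1 read per output. Fitness is log base 2 of genotype enrichment divided by wild-type enrichment, from inverse-variance-weighted replicate averages.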

Variant	polymerase ribozyme fitness (log ratio)
A64G C85U A91G C99U C105G	≤ -4.2
A64G C93G U146G U151C	≤ -4.2
A64G G65C U82C A113C U139C	≤ -4.2
A64G G68A C87A U148A	≤ -4.2
A64G G81C G83C G100C	≤ -4.2
A64G G83U G124U	≤ -4.2
A64G G84A C99A C114A	≤ -4.2
A64G G94A U139G	≤ -4.2
A64G U82A A91U A97C A122G A142C	≤ -4.2
A64U	-3.99
A64U A66G G84A	≤ -4.2
A64U A91U A115U	≤ -4.2
A64U A97U C131A	≤ -4.2
A64U C72A	≤ -4.2
A64U C76U G83C	≤ -4.2
A64U C87A C95U U139A	≤ -4.2
A64U C93U	≤ -4.2
A64U C96U C103U U144A	≤ -4.2
A64U C99A	≤ -4.2
A64U G67A A98G A137G U146A U148G	≤ -4.2
A64U G68U G83A G94A	≤ -4.2
A64U G80A U82G C95U	≤ -4.2
A64U G83C C87G G126C U144C U148A G152U	≤ -4.2
A64U G84C	≤ -4.2

Variant	polymerase ribozyme fitness (log ratio)
A64U G86A A91C C99G G141A	≤ -4.2
A64U U78G G88C	≤ -4.2
A64U U146C	≤ -4.2
G65A A73G G84C U111A	≤ -4.2
G65A C69U C76U U78C C79U G86C	≤ -4.2
G65A C72U A98G A107G	≤ -4.2
G65A C76A A122U	-4.06
G65A C85A G143C	≤ -4.2
G65A C132G A142U	≤ -4.2
G65A G67A G70C G80C G81A C93A C108A G124A U144A	≤ -4.2
G65A G67U G88U G136C U139C G143A	≤ -4.2
G65A G74C G140U A147G	≤ -4.2
G65A G84A A137G G140C	≤ -4.2
G65A G84U	-2.89
G65A G86C A142C	≤ -4.2
G65A G94U G100A C108A	≤ -4.2
G65A G136C A147C	-4.13
G65C A66C A73C C87A	≤ -4.2
G65C A73U	≤ -4.2
G65C C85U	-4.04
G65C C85U A119U C123U	≤ -4.2
G65C C87A A106U G143A	≤ -4.2
G65C C93G	≤ -4.2
G65C C132A A137C	≤ -4.2

Variant	polymerase ribozyme fitness (log ratio)
G65C G67C	≤ -4.2
G65C G74C G88A C93G U146A	≤ -4.2
G65C G81U G94C C105G A115G C129U A138C	≤ -4.2
G65U A91U A107C A115U	≤ -4.2
G65U A97U A115U	≤ -4.2
G65U C85U C108G G140A	≤ -4.2
G65U G71U C93A A115C U145A	≤ -4.2
G65U G80U	≤ -4.2
A66C A91G A98U C131A U139A	≤ -4.2
A66C A142U	≤ -4.2
A66C C69U G71C G92U A119G U145C	≤ -4.2
A66C C76U	-3.47
A66C C76U A91U A97U C114U A142G	≤ -4.2
A66C C79G G83U	≤ -4.2
A66C C85A C95A A121U G126A U151C	≤ -4.2
A66C C85G A122C	≤ -4.2
A66C C85U A119G U127C	≤ -4.2
A66C C85U C103U A120G C123A	≤ -4.2
A66C C87G C105G	≤ -4.2
A66C C95A C96G A107U C118U A142U	≤ -4.2
A66C C95U A98G U130G	≤ -4.2
A66C C96G C99U C125A A150G	≤ -4.2
A66C C116U U139G	≤ -4.2
A66C C132U U139G	≤ -4.2

Variant	polymerase ribozyme fitness (log ratio)
A66C G67A A73G	≤ -4.2
A66C G74C C85G U104C A107G A115G U135G A138U G140U U148A	≤ -4.2
A66C G84A	≤ -4.2
A66C G84A A110G A115G	≤ -4.2
A66C G84U U90G U139G G143A	≤ -4.2
A66C G100U	≤ -4.2
A66C G136A U139A	≤ -4.2
A66C G143A	≤ -4.2
A66C U77A A91U U127C	≤ -4.2
A66C U90G A150C	≤ -4.2
A66C U135A	≤ -4.2
A66G A73G C93U U148A	≤ -4.2
A66G A91C	≤ -4.2
A66G A91G C96U A97U C116U	≤ -4.2
A66G A91U	≤ -4.2
A66G A137G	≤ -4.2
A66G C75U C79G C85A A142C	≤ -4.2
A66G C85U	-3.45
A66G C85U C99A G141C	≤ -4.2
A66G C85U G86U	≤ -4.2
A66G C87G C99G U135G	≤ -4.2
A66G C87U	-3.68
A66G C93U U139A G141A U146G	≤ -4.2
A66G C96A A110G	≤ -4.2

Variant	polymerase ribozyme fitness (log ratio)
A66G C96U A138U U151A	≤ -4.2
A66G G68A C79U C93A A98G U102G C132G U134C G143C	≤ -4.2
A66G G68C U109G C132A G141U	≤ -4.2
A66G G70A C96A	≤ -4.2
A66G G74C	≤ -4.2
A66G G83C U111G	≤ -4.2
A66G U101G A107G A120G U139A	≤ -4.2
A66U A73C U78C G88U A107G	≤ -4.2
A66U A73G C85G C95A C123U C125G A150G	≤ -4.2
A66U A91U C96U C116G U130G	≤ -4.2
A66U C69A C131G	≤ -4.2
A66U C85U C93U U134C A142U U145G	≤ -4.2
A66U C87U U102A G136A	≤ -4.2
A66U C93A C96A A137C	≤ -4.2
A66U C93U	≤ -4.2
A66U C93U A107C G143U	≤ -4.2
A66U C96A C108G	≤ -4.2
A66U C103A C116U	≤ -4.2
A66U G71A A91C A147C	≤ -4.2
A66U G74C	≤ -4.2
A66U G84U C87A	≤ -4.2
A66U G84U G86C A89U	≤ -4.2
A66U G86U C103A A142G	≤ -4.2
A66U G152A	≤ -4.2

Variant	polymerase ribozyme fitness (log ratio)
A66U U82A G88C C96U U102A	≤ -4.2
A66U U101C	≤ -4.2
A66U U144A	≤ -4.2
G67A A73C C87G	≤ -4.2
G67A A91G	≤ -4.2
G67A C72U C75G G92C C95U A113G C116G	≤ -4.2
G67A C76A U90C G140A	≤ -4.2
G67A C79A	≤ -4.2
G67A C87A A97C G143C	≤ -4.2
G67A C87U G140U	≤ -4.2
G67A C93A C96A	≤ -4.2
G67A G71A C95U	≤ -4.2
G67A G80C A122C C125U U139A G140U	≤ -4.2
G67A G81C G88A	≤ -4.2
G67A G81U C85G C95U A142C U144G	≤ -4.2
G67A G84A	≤ -4.2
G67A G84U A120G	≤ -4.2
G67A G86A	-3.58
G67A G92A C95A U151C	≤ -4.2
G67A U78G C85G C87U G140C A150C	≤ -4.2
G67A U90C	≤ -4.2
G67A U102G	≤ -4.2
G67C A73U G83A C87U C99G C105A	≤ -4.2
G67C A73U U77G G80C C96G U127A U148C	≤ -4.2

Variant	polymerase ribozyme fitness (log ratio)
G67C A91C	≤ -4.2
G67C A120U	≤ -4.2
G67C C72U C85G G143C	≤ -4.2
G67C C76A G83C C96A A115C U144A	≤ -4.2
G67C C79U C95U A98U U104A C105U	≤ -4.2
G67C C85G G86C C93A A106U	≤ -4.2
G67C C87U C149U	≤ -4.2
G67C C95U	≤ -4.2
G67C C96U A97G A115C	≤ -4.2
G67C C96U C103U C114A	≤ -4.2
G67C C118U	≤ -4.2
G67C G84U A121C	≤ -4.2
G67C G88C A97U U111C	≤ -4.2
G67C G100C A137G	≤ -4.2
G67C U78A A91G A137G	≤ -4.2
G67C U90G C118G	≤ -4.2
G67C U101A G141U A150U G152U	≤ -4.2
G67C U104G A106C A110G G141C	≤ -4.2
G67U A73U A91G G117U	≤ -4.2
G67U C69A G83A G92A	≤ -4.2
G67U C75A G92A G124U	≤ -4.2
G67U C79G	≤ -4.2
G67U C79U G83U G88C	≤ -4.2
